Test results from the RNAGym collection of RNA variant scans (doi:10.7554/elife.90254).
Read counts are not given, so values of variants with three or more changes are uncertain.

B1: LINE1-mini (parent)
chain: GGCAGAGCUCAACACAGCGUGGCAAAGUGGCUGUGGCUAGACUGCC

Variants of: B1
Test: self-cleavage, relative activity (ratio to wild type); higher = more cleavage; in vitro, sequencing; the parent is a self-cleaving ribozyme

Row | Variant | self-cleavage
1 | G1U U20C U32A | 0.06
2 | A4G C10U A12C C15G G17U G19U | 0.02
3 | G1U G5U U9C A12C | 0.03
4 | A4C U9G C10U | 0.08
5 | G2A C10A U20A | 0.11
6 | C3G G21U G30U G40U | 0.12
7 | C8U C15U C23A G27U | 0.59
8 | G1U A6C C10A U34G C46A | 0.01
9 | A11C A12G A16G G35C | 0.01
10 | C8A A24U C31G C37G | 0.04
11 | G1U G5U A6G A12C C23U | 0.02
12 | U9C A11U C13U | 0.05
13 | U9G G21C G22A C37U A41C C46U | 0.01
14 | C10A G22C A26U U28A A39G | 0.01
15 | G1A G35C A41C | 0.08
16 | G1U C10U A39G | 0.04
17 | G27U G30A C42G | 0.05
18 | A6G C8U A25G A26G C31A G33A U34A C37A | 0.02
19 | A14C G19C G22C C46G | 0.02
20 | G2A C3G U32C U34G G35U G36A | 0.14
21 | C8A C13A A16C G40C | 0.25

Row | Variant | self-cleavage
22 | A4U G7A G44A | 0.28
23 | G2C G5U G7C C46U | 0.13
24 | G2A G27A U28G G36C | 0.07
25 | C3A U28G G29A U32A | 0.1
26 | A12C A14G C18U G29C | 0.06
27 | G7U G19A G35U C37U | 0.03
28 | A25G A26U A41G | 0.01
29 | C13U G22U G40C | 0.02
30 | A6C G27C C37A | 0.05
31 | A6U C10U C15A G19U A39C C46G | 0.02
32 | C10G A16G G30U | 0.04
33 | G19C U32C G40U | 0.1
34 | C13A A26U G44A C46U | 0.06
35 | G5A A16G A39C | 0.08
36 | C15U U20G C31A C37A | 0.04
37 | C8U A12U A14G C23U G30A | 0.01
38 | G30C C37A C42A | 0.22
39 | A14G A16G G29U G40U | 0.04
40 | A11U G22A G40C | 0.02
41 | G7C C8G C10G A12U A26C G40U | 0.02
42 | A4U C8A G21U G22U | 0.28

Row | Variant | self-cleavage
43 | U20G U34C G35U C45U | 0.09
44 | G19C G21A G44U | 0.28
45 | G7A G21A C23U U32C | 0.07
46 | C8U C15A A26U U28A G36C C45A | 0.05
47 | G1A G19U G30A | 0.56
48 | A12U A25C U38G C46A | 0.01
49 | G5A G19A C45G | 0.03
50 | C10A G21U C23G C37A | 0.01
51 | G7A C8A G19A | 0.34
52 | C15A C31A G35C | 0.07
53 | C15U G19U A26C G27U U34A | 0.38
54 | A4U C18G G27U | 0.52
55 | C3U G17A A24G U43G | 0.01
56 | A14U C18G G21U A24C U34G G36C U43G | 0.21
57 | A4U A11C G29U | 0.05
58 | G5A A6G G17C A25G A39C | 0.06
59 | G1A G27U C31A | 0.11
60 | U9G A14U G22A A25C G35C C42U U43A | 0.01
61 | A12U G22C A25G G30A C31U | 0.02
62 | G2C A11C A14C C18U | 0.02
63 | G21U C31A U32G C45A C46G | 0.01

Row | Variant | self-cleavage
64 | G2U A14C A16G G44A | 0
65 | A4G G7A C13U A16U G22U G30U C31G | 0.09
66 | G7A C15U G17U C18A G19A C46G | 0.07
67 | C8A C10G A24U U28A G36U | 0
68 | G5U A16U U43A | 0.14
69 | G2A A14C C31G G35U A39U C45A | 0.04
70 | C10A A39G A41U G44A | 0.08
71 | G1U A4C C8A A12C C23A U28A | 0.02
72 | G1U C3A A11G C31A | 0.01
73 | A4C A6C G36U U43A | 0.01
74 | G17U G29A C45G | 0.05
75 | A16C C23A A39G | 0.14
76 | A6U C18U G21U A25C C45G | 0.08
77 | C10A A24U G33C | 0.05
78 | G5U C10A G22A G29A U38A | 0.02
79 | G21A A25C G29A C46G | 0.34
80 | C10U A11C G27A G30C | 0.06
81 | C3U G7A C15A G27C U32G U34A | 0.04
82 | A4C C10U A25U | 0.01
83 | C8A C10G C13A C18U | 0.01
84 | C8A A41C C46U | 0.11
